Values joined by “and” are separate entries in the source; they are usually repeats but may differ in a detail not shown here. Equal values may be shown once. The name of at least one read-out is uncertain.
Experiments:
Type in all cases: cell-based
[1] = test system: human embryonic stem cells (H9 or H1 lines); experiment: Plate reader (MTS) proliferation assay; conditions: for Raw Data: replicate wells, plate reader proliferation screen of GSK-3B inhibitors
Method: Maintenance of human embryonic stem cells (H9 or H1 lines) was conducted as described in Example 1. Colonies of cells were maintained in an undifferentiated, pluripotent state with passage on average every four days. Passage was performed by exposing cell cultures to a solution of collagenase (1 mg/ml; Sigma-Aldrich) for 10 to 30 minutes at 37° C. followed by gentle scraping with a pipette tip to recover cell clusters. Clusters were allowed to sediment and washed to remove residual collagenase. Cell clusters were split at a ratio of 1:3 monolayer area for routine culture or a 1:1 ratio for immediate assay. The human embryonis stem cell lines used for these examples were maintained at passage numbers less than 50 and routinely evaluated for normal karyotypic phenotype as well as absence of mycoplasm contamination.
Cell clusters used in assay were evenly resuspended in normal culture medium and plated into MATRIGEL-coated 96-well Packard VIEWPLATES (PerkinElmer) in volumes of 100 μl/well. MEF conditioned medium supplemented with 8 ng/ml bFGF) was used for initial plating and recovery. Daily feeding was conducted by aspirating spent culture medium from each well and replacing with an equal volume of fresh medium. Plates were maintained at 37° C. in a humidified box, 5% CO2 throughout the duration of assay.
Primary screening assays were initiated by aspirating culture medium from each well followed by three washes in PBS to remove residual growth factors and serum. Test volumes of 80-100 μl per well were added back containing DMEM:F12 base medium (Invitrogen) supplemented with 0.5% FCS (HyClone) and 100 ng/ml activin A (R&D Biosystems) and 10 μM test compound. Positive control wells contained the same medium substituting 10-20 ng/ml Wnt3a (R&D Biosystems). Negative control wells contained base medium with 0.5% FCS without activin A or Wnt3a. Screening compounds were tested in triplicate. Wells were aspirated and fed again with identical solutions on day 2 of the assay. On days 3 and 4, all assay wells were aspirated and converted to DMEM:F 12 supplemented with 2% FCS and 100 ng/ml activin A with the exception of negative control wells which were maintained in DMEM:F12 base medium with 2% FCS.
On day 4 of assay, 15-20 μl of MTS (Promega) was added to each well and plates were incubated at 37° C. for 1.5 to 4 hours. Densitometric readings at OD490 were determined using a Molecular Devices spectrophotometer plate reader. Average readings for replicate sets were calculated along with standard deviation and coefficient of variation. Experimental wells were compared to the Activin A/Wnt3a positive control to calculate a percent control value as a measure of proliferation.
Strong hits are defined as greater than or equal to 120% of control values; moderate hits are defined as falling within the interval of 60-120% of control values. A significant number of compounds induce a proliferative response in this assay.

[2] = test system: Sox17 expression in human embryonic stem cell line H1; experiment: Dose titration secondary assay: Sox17 intensity, H1
Method: (§1) It was important to confirm the activity of hits identified from primary screening and further analyze the range of activity by dose titration. New samples of a selective subset of primary screening hits were obtained as dry powders, solubilized to make fresh stock reagents, and diluted into secondary confirmation assays to evaluate effects on human embryonic stem cells.
(§2) Culture of two human embryonic stem cells (H1 and H9) was conducted as described in Example 1. Colonies of cells were maintained in an undifferentiated, pluripotent state on Matrigel™ ([…]) coated polystyrene plastic, using a 1:30 dilution of Matrigel™ in DMEM:F12 to coat the surface. Cells were split by enzymatic passage every four days on average. Passage was performed by exposing cell monolayers to a solution of collagenase (1 mg/ml; Sigma-Aldrich) for 10 to 60 minutes at 37° C. followed by gentle scraping with a pipette tip to recover cell clusters. Clusters were allowed to sediment by gravity, then washed to remove residual collagenase. Cell clusters were split at a 1:3 ratio for maintenance culture or a 1:1 ratio for subsequent assay. The human embryonic stem cell lines were maintained at less than passage 50 and routinely evaluated for normal karyotypic phenotype and absence of mycoplasma contamination.
(§3) Cell clusters of the H1 or H9 human embryonic stem cell lines used in the assay were evenly resuspended in culture medium and plated onto Matrigel™-coated 96-well Packard VIEWPLATES (PerkinElmer) in volumes of 100 μl/well. MEF conditioned medium supplemented with 8 ng/ml bFGF was used for initial plating and expansion. Daily feeding was conducted by aspirating spent culture medium from each well and replacing with an equal volume of fresh medium. Cultures were allowed to expand one to three days after plating prior to initiating assay. Plates were maintained at 37° C., 5% CO2 in a humidified box for the duration of assay.
(§4) A subset of hits resulting from primary screening was used for follow-up study and subsequent secondary assays. Twenty compounds available as dry powders were solubilized as 10 mM stocks in DMSO and stored dessicated at […] until use Immediately prior to assay, compound stocks were diluted 1:1000 to make 10 μM test compound in DMEM:F12 base medium (Invitrogen) supplemented with 0.5% FCS (HyClone) and 100 ng/ml Activin A (R&D Biosystems). This was further diluted two-fold in series to make a seven point dilution curve for each compound, also in DMEM:F12 base medium with 0.5% FCS and 100 ng/ml Activin A.
(§5) Assay was initiated by aspirating culture medium from cell monolayers in each well followed by three washes in PBS to remove residual growth factors and serum. Test volumes of 100 μl per well were added back containing medium with 0.5% FCS and different concentrations of inhibitor compounds with 100 ng/ml Activin A, without Wnt3a. Positive control wells contained the same base medium with 0.5% FCS and with 20 ng/ml Wnt3a (R&D Biosystems) in the absence of test compound. Negative control wells contained the same base medium with 0.5% FCS, in the absence of Activin A, Wnt3a, or test compound. Assay wells were aspirated and fed again with identical concentrations of test compound or control solutions on day 2 of assay. On days 3 and 4, all assay wells were aspirated and fed with DMEM:F12 supplemented with 2% FCS and 100 ng/ml Activin A in the absence of both test compound or Wnt3a. Parallel negative control wells were maintained on days 3 and 4 in DMEM:F12 base medium with 2% FCS.
(§6) At the end of culture, cells in 96-well plates were washed twice with PBS then fixed with 4% paraformaldehyde at room temperature for 20 minutes, washed three times more with PBS, and then permeabilized with 0.5% Triton X-100 for 20 minutes at room temperature. After fixing and permeabilizing, cells were washed again three times with PBS and then blocked with 4% chicken serum (Invitrogen) in PBS for 30 minutes at room temperature. […]

[3] = test system: human embryonic stem cell line H9; experiment: Dose titration secondary assay: cell number, H9
Method: as §1, §2, §3, §4, §5, §6

[4] = test system: Sox17 expression in human embryonic stem cell line H9; experiment: Dose titration secondary assay: Sox17 intensity, H9
Method: as §1, §2, §3, §4, §5, §6

[5] = relative to AA/Wnt3a/DMSO positive control (100.0) of the same plate

Cn1cc(C2=C(c3nn(CC(=O)NCCO)c4ccccc34)C(=O)NC2=O)c2cc(Cl)ccc21 [Compound 82, 2-{3-[4-(5-Chloro-1-methyl-1H-indol-3-yl)-2,5-dioxo-2,5-dihydro-1H-pyrrol-3-yl]-1H-indazol-1-yl}-N-(2-hydroxyethyl)acetamide]
% Control [1, 5]: 131.2% | Raw Data [1]: 0.8639 and 0.9218

CN(C)CCCn1c2c(c3ccccc31)C1=C(C(=O)NC1=O)N(c1cccc(Cl)c1)C2 [Compound 101, 4-(3-Chlorophenyl)-6-[3-(dimethylamino)propyl]-5,6-dihydropyrrolo[3′,4′:5,6]pyrido[3,4-b]indole-1,3(2H,4H)-dione]
% Control [1, 5]: 154.6% | Raw Data [1]: 0.9482 and 1.1150 | Sox17 Intensity ([2]; 0.156 μM compound): 0.708 | Sox17 Intensity ([2]; 0.313 μM compound): 0.515 | Sox17 Intensity ([2]; 0.625 μM compound): 0.567 | Sox17 Intensity ([2]; 1.25 μM compound): 0.910 | Sox17 Intensity ([2]; 2.5 μM compound): 0.800 | Sox17 Intensity ([2]; 5 μM compound): 0.158 | Sox17 Intensity ([2]; 10 μM compound): 0.491 | Cell number ([3]; 0.156 μM compound): 0.057 | Cell number ([3]; 0.313 μM compound): 0.072 | Cell number ([3]; 0.625 μM compound): 0.200 | Cell number ([3]; 1.25 μM compound): 0.293 | Cell number ([3]; 2.5 μM compound): 0.521 | Cell number ([3]; 5 μM compound): 0.433 | Cell number ([3]; 10 μM compound): 0.452 | Sox17 Intensity ([4]; 0.156 μM compound): 0.040 | Sox17 Intensity ([4]; 0.313 μM compound): 0.051 | Sox17 Intensity ([4]; 0.625 μM compound): 0.150 | Sox17 Intensity ([4]; 1.25 μM compound): 0.155 | Sox17 Intensity ([4]; 2.5 μM compound): 0.408 | Sox17 Intensity ([4]; 5 μM compound): 0.251 | Sox17 Intensity ([4]; 10 μM compound): 0.262

O=C1NC(=O)C(c2cccc3c2oc2ccccc23)=C1c1cn(CCCO)c2ncccc12 [Compound 33, 3-Dibenzo[b,d]furan-4-yl-4-[1-(3-hydroxypropyl)-1H-pyrrolo[2,3-b]pyridin-3-yl]-1H-pyrrole-2,5-dione]
% Control [1, 5]: 10.6% | Raw Data [1]: 0.2447 and 0.1331

O=C1NC(=O)C(c2cn(CCCO)c3ncccc23)=C1c1cc[nH]c1 [Compound 242, 4-[1-(3-Hydroxypropyl)-1H-pyrrolo[2,3-b]pyridin-3-yl]-1H,1′H-3,3′-bipyrrole-2,5-dione]
% Control ([1]; proliferation of human embryonic stem cells, AA/Wnt3a = 100.0, no cells = 0.0): −0.5%

Cn1ccc(C2=C(c3cn(CCCC#N)c4ncccc34)C(=O)NC2=O)n1 [Compound 94, 4-{3-[4-(1-Methyl-1H-pyrazol-3-yl)-2,5-dioxo-2,5-dihydro-1H-pyrrol-3-yl]-1H-pyrrolo[2,3-b]pyridin-1-yl}butanenitrile]
% Control [1, 5]: 146.2% | Raw Data [1]: 1.0006 and 0.9631

COCCCn1cc(C2=C(c3ccccc3OC)C(=O)NC2=O)c2cnccc21 [Compound 55, 3-[2-(Methyloxy)phenyl]-4-{1-[3-(methyloxy)propyl]-1H-pyrrolo[3,2-c]pyridin-3-yl}-1H-pyrrole-2,5-dione]
% Control [1, 5]: 151.6% | Raw Data [1]: 1.1902 and 1.1487

O=C1NC(=O)C(c2cn(CCOCCOCCO)c3ccccc23)=C1c1cn(CCO)c2ccccc12 [Compound 110, 3-[1-(2-Hydroxyethyl)-1H-indol-3-yl]-4-{1-[2-({2-[(2-hydroxyethyl)oxy]ethyl}oxy)ethyl]-1H-indol-3-yl}-1H-pyrrole-2,5-dione]
% Control [1, 5]: 160.9% | Raw Data [1]: 1.1940 and 0.9431 | Sox17 Intensity ([2]; 0.156 μM compound): 0.950 | Sox17 Intensity ([2]; 0.313 μM compound): 1.032 | Sox17 Intensity ([2]; 0.625 μM compound): 1.050 | Sox17 Intensity ([2]; 1.25 μM compound): 0.960 | Sox17 Intensity ([2]; 2.5 μM compound): 1.018 | Sox17 Intensity ([2]; 5 μM compound): 0.460 | Sox17 Intensity ([2]; 10 μM compound): 0.281 | Cell number ([3]; 0.156 μM compound): 0.336 | Cell number ([3]; 0.313 μM compound): 0.772 | Cell number ([3]; 0.625 μM compound): 0.928 | Cell number ([3]; 1.25 μM compound): 1.182 | Cell number ([3]; 2.5 μM compound): 1.355 | Cell number ([3]; 5 μM compound): 1.325 | Cell number ([3]; 10 μM compound): 0.002 | Sox17 Intensity ([4]; 0.156 μM compound): 0.291 | Sox17 Intensity ([4]; 0.313 μM compound): 0.746 | Sox17 Intensity ([4]; 0.625 μM compound): 0.941 | Sox17 Intensity ([4]; 1.25 μM compound): 1.119 | Sox17 Intensity ([4]; 2.5 μM compound): 1.305 | Sox17 Intensity ([4]; 5 μM compound): 1.185 | Sox17 Intensity ([4]; 10 μM compound): 0.000

O=C1NC(=O)C(c2cn(CCCO)c3ncccc23)=C1c1ccn(CCCO)n1 [Compound 185, 3-[1-(3-Hydroxypropyl)-1H-pyrazol-3-yl]-4-[1-(3-hydroxypropyl)-1H-pyrrolo[2,3-b]pyridin-3-yl]-1H-pyrrole-2,5-dione]
% Control [1, 5]: 28.3% | Raw Data [1]: 0.3590 and 0.2790 and 0.1515

O=C1NC(=O)C(c2nn(CCCO)c3ccccc23)=C1c1cn(C2CCOCC2)c2ccccc12 [Compound 78, 3-[1-(3-Hydroxypropyl)-1H-indazol-3-yl]-4-[1-(tetrahydro-2H-pyran-4-yl)-1H-indol-3-yl]-1H-pyrrole-2,5-dione]
% Control [1, 5]: 154.1% | Raw Data [1]: 1.1100 and 0.9464

O=C1NC(=O)C(c2cccc3c2sc2ccccc23)=C1c1cn(CCCO)c2ncccc12 [Compound 34, 3-Dibenzo[b,d]thien-4-yl-4-[1-(3-hydroxypropyl)-1H-pyrrolo[2,3-b]pyridin-3-yl]-1H-pyrrole-2,5-dione]
% Control [1, 5]: 3.8% | Raw Data [1]: 0.1537 and 0.1302

COc1ncc(C2=C(c3cn(CCc4ccccc4)c4ncccc34)C(=O)NC2=O)c(OC)n1 [Compound 98, 3-[2,4-Bis(methyloxy)pyrimidin-5-yl]-4-[1-(2-phenylethyl)-1H-pyrrolo[2,3-b]pyridin-3-yl]-1H-pyrrole-2,5-dione]
% Control [1, 5]: 88.0% | Raw Data [1]: 0.6887 and 0.5860
